Hit rate of the full screen: of about 280,000 compounds, about 2,600 (0.93%) were called active. Inconclusive results (about 8%) are left out. Calls come from the whole dose curve; as a rule, active = well fitted curve in the direction sought with a large enough effect; inconclusive = small, poorly fitted or top-dose-only effect; inactive = flat fitted curve, though single readings scatter. The entries are a selection whose mix differs from that of the whole data set.

The values below come from PubChem BioAssay AID1463 (National Center for Advancing Translational Sciences (NCATS), 2008).
% is set by controls: 0 for no effect and ±100 for the full control effect; potency is the fitted concentration of half-maximal effect; tags give direction and shape of the fitted curve or compound fluorescence and quenching.

A short description of the assay: Counterscreen qHTS for Inhibitors of Tau Fibril Formation, Fluorescence Polarization. Note: nearly all actives have a fitted effect of over 55% in size. Conditions: tau K18 P301L (four-repeat tau fragment) Alexa594 fluorescence, heparin fibrillization; series mostly up to 57.7 µM; activity change, negative = decrease: at the top concentration. The procedure, abridged:
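Human K18 P301L tau (15 uM unlabeled plus 0.24 uM Alexa 594-labeled, final) in 100 mM sodium acetate pH 7 was mixed with compound and 20 uM heparin and incubated 6 hr at 37 C.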
For orientation: Counterscreens check selectivity or assay interference.
Turning to `CCOC(=O)C1=C(C)NC(C)=C(C(=O)OCC)C1`, the “activity change, negative = decrease” value was inactive: -10.3%. Take `CCN(CC)c1ccc(/C=N/NC(=O)Nc2ccccc2)cc1`: the Potency was active: 14.1 µM [quencher]. As for `CC1(C)Oc2ccc3ccc(=O)oc3c2C[C@H]1O`, the “activity change, negative = decrease” value was inactive: 5.81%. For `CC(C)c1ccc(CNc2nc(-c3ccco3)nn2C(=O)c2ccc([N+](=O)[O-])cc2)cc1`, the Potency was active: 15.8 µM [quencher]. Same read-out and setting: then `COCC(=O)O[C@]1(CCN(C)CCCc2nc3ccccc3[nH]2)CCc2cc(F)ccc2[C@@H]1C(C)C`, with “inactive”; and `N#C/C(=C\Nc1ccccc1O)c1nc2ccccc2o1`, with active: 17.8 µM [quencher]; and `COc1cccc(Nc2nc(-c3sc(N)nc3C)cs2)c1`, with active: 14.1 µM [quencher]. With `O=C(NCc1ccco1)/C(=C/c1ccco1)NC(=O)c1ccco1`, the “activity change, negative = decrease” value was inactive: -11%. Still for that read-out and setting: the same measure for `O=C1NC(=O)/C(=C/c2ccc(N3CCOCC3)o2)N1`: inactive: -17.8%; for `CC(C)C[C@H](NC(=O)c1[nH]cnc1C(=O)N[C@@H](C)c1ccccc1)C(=O)OCc1ccccc1`: inactive: -20.5%; for `NC(C(=O)O)c1cc(O)cc(O)c1` (centres undefined): inactive: -3.99%. As to `CN1C(=CC=C2C=C(I)C(=O)C(I)=C2)C(C)(C)c2ccccc21`, the Potency is active: 0.708 µM [fluorescent]. As for `O=C(NCc1nc2ccccc2[nH]1)C1=C[C@@H](c2ccc3c(c2)OCO3)C[C@@H](OCc2ccc(CO)cc2)O1`, the “activity change, negative = decrease” value is inactive: -15.3%. `COc1ccc(-c2nc3ccc(NS(=O)(=O)c4ccc(C)cc4)cc3o2)cc1`: the Potency was active: 15.8 µM [quencher].

For the compound `Oc1[nH]c2ccccc2c1N=NC(=S)NCCc1ccccc1`, the Potency is active: 12.6 µM [quencher]. As to `Cc1cccc2sc(N(CCCN(C)C)C(=O)c3ccc(Cl)s3)nc12`, the “activity change, negative = decrease” value was inactive: -29%. Take `O=C(Nc1ccc(F)c(Cl)c1)N1CC=C(c2c[nH]c3ccccc23)CC1`: the Potency is active: 7.94 µM [quencher]. For `CCOC(=O)CCN1C(=O)[C@H]2[C@H]3[C@H](O)[C@H](O)C/C(=N/OCc4ccccc4)[C@@H]3CC[C@@H]2C1=O`, the activity change, negative = decrease was inactive: -3.65% [at 11.6 µM]. For `CCn1c2ccccc2c2cc(NC(=O)Cc3ccc(S(=O)(=O)N4CCOCC4)s3)ccc21`, the Potency was active: 7.94 µM [quencher]. As to `COC(=O)c1sc(S(=O)(=O)N2CCN(c3ccc(OC)cc3)CC2)c(C(=O)OC)c1C`, the “activity change, negative = decrease” value is inactive: -7.94%. For `CC(C)S(=O)(=O)c1csc(NC(=O)Nc2ccc(Cl)cc2)c1`, the Potency is active: 15.8 µM [quencher].

Take `NS(=O)(=O)c1ccc(Nc2nc(-c3ccccc3)cs2)cc1`: the Potency is active: 15.8 µM [quencher]. `COC(=O)C1(C(=O)OC)Cc2conc2[C@H]1c1ccccc1`: the Potency entry is “inactive”. Turning to `N#C/C(=C\c1ccc(O)c(O)c1)C(=O)NCc1ccccc1`, the Potency result was “inactive”.
